Data published in PubChem BioAssay AID504332 (National Center for Advancing Translational Sciences (NCATS), 2011).
The campaign covered roughly 350,000 compounds. About 31,000 (8.9%) were called active. The inconclusive results got no clear call from the source; some entries with a clear call stand among them for comparison. Calls come from the whole dose curve; as a rule, active = well fitted inhibition curve with a large enough effect; inconclusive = small, poorly fitted or top-dose-only effect; inactive = no such curve, though single readings can be large or run the other way. Potencies beside an inconclusive call are fits to weak or partial responses and may not hold up.

biological target: Histone-lysine N-methyltransferase EHMT2 (Homo sapiens) (UniProt Q96KQ7); assay: qHTS Assay for Inhibitors of Histone Lysine Methyltransferase G9a; details: G9a H3K9 monomethylation, AlphaScreen, 2 h; activity, negative = inhibition: at 59 µM (top of the series) unless noted; note: nearly all actives have a fitted effect of over 75% in size
Chain of UniProt Q96KQ7 (Q96KQ7 whole entry, looked up): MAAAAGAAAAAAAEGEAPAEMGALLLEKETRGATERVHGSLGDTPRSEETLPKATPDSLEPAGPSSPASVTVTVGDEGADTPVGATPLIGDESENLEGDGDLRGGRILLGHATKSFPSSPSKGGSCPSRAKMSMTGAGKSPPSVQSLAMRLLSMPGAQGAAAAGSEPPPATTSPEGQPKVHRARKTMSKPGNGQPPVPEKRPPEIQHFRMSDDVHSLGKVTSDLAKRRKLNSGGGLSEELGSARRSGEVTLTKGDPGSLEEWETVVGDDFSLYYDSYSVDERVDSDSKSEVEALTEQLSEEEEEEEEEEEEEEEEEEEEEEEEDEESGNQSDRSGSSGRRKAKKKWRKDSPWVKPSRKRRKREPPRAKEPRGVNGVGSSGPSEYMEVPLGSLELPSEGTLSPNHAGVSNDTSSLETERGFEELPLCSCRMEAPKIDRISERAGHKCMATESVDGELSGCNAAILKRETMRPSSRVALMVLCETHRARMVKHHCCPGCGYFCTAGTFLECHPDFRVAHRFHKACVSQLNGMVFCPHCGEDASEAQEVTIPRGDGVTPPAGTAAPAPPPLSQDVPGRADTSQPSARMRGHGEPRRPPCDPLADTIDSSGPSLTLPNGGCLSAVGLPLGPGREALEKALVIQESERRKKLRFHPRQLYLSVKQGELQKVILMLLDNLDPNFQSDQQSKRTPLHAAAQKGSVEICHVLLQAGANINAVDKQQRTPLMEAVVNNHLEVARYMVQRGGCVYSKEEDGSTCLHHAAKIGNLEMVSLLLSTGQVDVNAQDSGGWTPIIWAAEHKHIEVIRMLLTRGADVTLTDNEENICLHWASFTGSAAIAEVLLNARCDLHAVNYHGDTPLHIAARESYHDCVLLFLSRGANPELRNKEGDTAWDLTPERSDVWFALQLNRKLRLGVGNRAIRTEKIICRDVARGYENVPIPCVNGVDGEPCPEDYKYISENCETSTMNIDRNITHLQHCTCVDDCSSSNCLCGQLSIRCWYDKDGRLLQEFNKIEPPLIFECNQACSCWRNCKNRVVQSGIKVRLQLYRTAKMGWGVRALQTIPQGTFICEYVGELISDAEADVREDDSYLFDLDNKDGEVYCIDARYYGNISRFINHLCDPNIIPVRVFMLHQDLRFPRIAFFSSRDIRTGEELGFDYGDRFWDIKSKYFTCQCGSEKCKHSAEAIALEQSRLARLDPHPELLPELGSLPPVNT
Procedure, shortened: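 Compounds were preincubated with 20 nM G9a for 15 min, after which biotinylated H3K9 peptide (500 nM) and SAM (20 uM) started a 2 h room-temperature reaction. Monomethylated product was quantified by antibody-based AlphaScreen chemiluminescence.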
% is set by controls: 0 for no effect and ±100 for the full control effect; potency is the fitted concentration of half-maximal effect; tags give direction and shape of the fitted curve.

Structure (SMILES) | activity, negative = inhibition | Potency
CCOc1ccc(CCNC(=O)c2cc3c(s2)-c2ccccc2OC3)cc1OCC | inactive: -4.01% | –
CCc1nc(C)ccc1OCC(=O)NCCCN(C)C | – | active: 3.16 µM
CC(C)[C@H](NC(=O)c1ccco1)C(=O)NCc1ccccc1 | inactive: 18.6% [at 102 µM] | –
Cc1nc2ccccc2c2c1C(=O)N(c1ccc(C(=O)O)cc1)C2=O | – | inconclusive: 56.2 µM [inhibitor, single point]
Cc1csc(NC(=O)C2CCCN2C(=O)OCC(C)C)n1 (stereo not given) | – | inconclusive: 25.1 µM [inhibitor, partial curve, poor fit]
Oc1ccccc1-c1nnc2n1CCCCC2 | – | inconclusive: 56.2 µM [inhibitor, partial curve, poor fit]
Cc1cccc(C)c1Nc1c(-c2ccccc2F)nc2cccc(C)n12 | – | active: 17.8 µM
COc1cccc(-n2nnnc2SCC(=O)NCCc2ccc(OC)c(OC)c2)c1 | inactive: 4.39% [at 102 µM] | –
CCOC(=O)C1CCN(C(=O)c2ccc(Br)o2)CC1 | inactive: -50.5% [at 12.7 µM] | –
Cc1cc(C(=O)NCc2cc(C(=O)O)co2)co1 | – | inconclusive: 56.2 µM [inhibitor, single point]
CC1CCN(c2cc(N3CCOCC3)c(F)cc2[N+](=O)[O-])CC1 | – | inconclusive: 39.8 µM [inhibitor, full curve, poor fit]
N#CCCN/N=C(/Cc1nc2ccccc2[nH]1)c1ccc(Cl)cc1 | inconclusive: -68.2% [inhibitor] | –
CC(C(=O)NC1CCS(=O)(=O)C1)N1C(=O)/C(=C/c2ccc(Cl)cc2)SC1=S (stereo not given) | – | inconclusive: 39.8 µM [inhibitor, partial curve, poor fit]
CNC(=S)N1CCN(c2ccccn2)CC1 | inactive: 20.4% | –
Cc1ccc(S(=O)(=O)c2c(COC(=O)c3cccc(Cl)c3)c(-c3ccccc3)nn2C)cc1 | – | inconclusive: 89.1 µM [inhibitor, partial curve, poor fit]
Cc1sc2ncnc(NC(C)C(=O)O)c2c1C (stereo not given) | – | inconclusive: 7.08 µM [inhibitor, partial curve, poor fit]
Cc1cccc(-c2c3c(=O)n(C)c(=O)n(C)c3cn2CCO)c1 | – | active: 22.4 µM
CN(C)CCCN1C(=O)C(=O)/C(=C(/O)c2ccccc2)C1c1ccccn1 (stereo not given) | inactive: -64.7% [at 102 µM] | –
CCCCN(CC)CCNC(=O)c1c(C)oc2ncnc(N3CCOCC3)c12 | inactive: -2.26% | –
CCNc1ccccc1C(=O)O | – | inconclusive: 79.4 µM [inhibitor, partial curve, poor fit]
Cc1ccc(NC(=O)C2C3CCC(O3)C2C(=O)O)cc1Cl (stereo not given) | – | inconclusive: 100 µM [inhibitor, single point]
CCOc1ccc(C(=O)/C=C/c2cn(CC(O)CN3CCCCCC3)c3ccccc23)cc1 (stereo not given) | – | inconclusive: 12.6 µM [inhibitor, partial curve, poor fit]
CC1CCN(C(=O)C(NS(=O)(=O)c2cccc3nsnc23)c2ccccc2)CC1 (stereo not given) | – | inconclusive: 89.1 µM [inhibitor, single point]

Structure (SMILES) | activity, negative = inhibition | Potency
CC(C)(C)c1ccc(NS(=O)(=O)c2ccc(N)cc2)cc1 | – | inconclusive: 1.41 µM [inhibitor, single point]
c1ccc2[nH]c(SCCN3CCOCC3)nc2c1 | inactive: 17.3% | –
O=C(NCc1ccc(Cl)cc1)C1CCCN(S(=O)(=O)c2cnc[nH]2)C1 (stereo not given) | – | inconclusive: 70.8 µM [inhibitor, single point]
Cc1cc(C)c[n+](-c2[nH]c(=O)sc2/C=N/NC([S-])=Nc2ccccc2)c1 | – | active: 35.5 µM
Clc1ccc(-c2nc3cnccn3c2Nc2ccc3c(c2)OCO3)cc1 | – | active: 15.8 µM
Cc1ccc(-c2nnn(CC(=O)N(c3cccc(F)c3)C(C(=O)NC3CCCC3)c3ccco3)n2)o1 (stereo not given) | – | inconclusive: 39.8 µM [inhibitor, single point]
Cc1cccc(-c2nc(CS(=O)CC(=O)NCC3CCCO3)c(C)o2)c1 (stereo not given) | – | inconclusive: 50.1 µM [inhibitor, partial curve, poor fit]
Cn1cc(SCC(=O)N2CCCc3ccccc32)c2ccccc21 | – | inconclusive: 39.8 µM [inhibitor, single point]
Cc1cccc(C)c1NC(=O)COC(=O)c1c(C)nn(-c2ccccc2)c1C | – | active: 11.2 µM
O=c1c2c3c(sc2nc(NCCOCCO)n1Cc1ccco1)CCCCC3 | – | inconclusive: 50.1 µM [inhibitor, partial curve]
C#CCn1c(C2CC(=O)N(c3ccc(OC)cc3)C2)nc2ccccc21 (stereo not given) | inactive: -3.99% | –
Cc1cc(/C=C2\SC(=S)NC2=O)c(C)n1C | – | active: 39.8 µM
CC(=O)NS(=O)(=O)c1ccc(NC(=O)c2cccc(S(=O)(=O)N3CCc4ccccc43)c2)cc1 | – | inconclusive: 50.1 µM [inhibitor, partial curve, poor fit]
CN1CCN(C2(CNC(=O)c3ccc(C(C)(C)C)cc3)CCCCC2)CC1 | – | inconclusive: 28.2 µM [inhibitor, partial curve, poor fit]
CC(c1ccccc1)N1CCn2c(nc3cc(NC(=O)NC4CCCCC4)ccc32)C1 (stereo not given) | – | active: 35.5 µM
Cc1occc1-c1nnc(SCC(=O)Nc2ccccc2)n1CCc1ccccc1 | inactive: 1.52% [at 12.7 µM] | –
Cc1nn(C)cc1/C=C1\SC(=S)NC1=O | – | inconclusive: 31.6 µM [inhibitor, single point]
COc1ccc2occ(CC(=O)Nc3ccc(S(=O)(=O)Nc4nccc(C)n4)cc3)c2c1 | – | inconclusive: 8.91 µM [inhibitor, partial curve, poor fit]
O=C(COC(=O)C1CC2CCCC(C1)C2=O)Nc1cccc(F)c1 (stereo not given) | – | inconclusive: 25.1 µM [inhibitor, single point]
CC(Cc1c[nH]c2ccccc12)C(=O)N1CCN(c2ccccc2F)CC1 (stereo not given) | – | inconclusive: 89.1 µM [inhibitor, single point]
Cc1ccc(NC(=S)NNC(=O)c2ccc(N3CCOCC3)c([N+](=O)[O-])c2)cc1C | – | inconclusive: 25.1 µM [inhibitor, single point]
O=C(/C=C/c1ccccc1)N1CCC(c2ccccc2)C1 (stereo not given) | inactive: -8.5% | –
